PubChem BioAssay AID463173 (ICCB-Longwood Screening Facility, Harvard Medical School, 2010)
Out of some 52,000 compounds screened, about 1,700 (3.3%) were called active. Rule as the data show it: active = survival mostly below about 52% (no sharp cut-off); inactive = mostly above about 56%. The list shows a part of the results.

test system: Wild type; test: S. aureus survival, RN4220 and DeltatarO strains – OD600, teichoic acid synthesis inhibitors, primary screen (AID 463173); settings: S. aureus RN4220 wild type/DeltatarO growth, OD600, 18 h, active compounds read low, screened at 18.75 µg/mL (by protocol)

Row | SMILES | survival
1 | O=C(NC(=S)N1CCCC(C(F)(F)F)C1)c1ccc(F)cc1 (stereo not drawn) | inactive: 112%
2 | Cc1cc(N2CCN(c3cccc(C)c3C)CC2)n2nc(C)c(-c3ccc(Cl)cc3)c2n1 | inactive: 88%
3 | COc1ccc(-n2c(-c3ccco3)nc3c(cnn3-c3ccccc3C)c2=O)cc1 | inactive: 122%
4 | Cc1ccccc1CNC(=O)c1cc2cc(S(=O)(=O)N3CCCCC3)ccc2n1C | inactive: 66%
5 | CCOc1ccc(C2c3c(oc4ccccc4c3=O)C(=O)N2c2nnc(C)s2)cc1OC (stereo not drawn) | inactive: 85%
6 | Cc1cc(C)c2oc(C(=O)Nc3ccc(S(=O)(=O)N4CCC(C)CC4)cc3)cc(=O)c2c1 | inactive: 80%
7 | Cc1ccc(CN2CCN(C3CCN(C(=O)Nc4ccccc4C(F)(F)F)CC3)C(=O)C2=O)cc1 | inactive: 72%
8 | Cc1cc(C)n2c(Nc3ccccc3)c(-c3ccccc3)nc2n1 | inactive: 86%
9 | Cc1cccc(Cn2cnc3c(cnn3-c3ccc(Cl)cc3)c2=O)c1 | inactive: 97%
10 | Cn1c(CNC(=O)CSc2nc(-c3cccc(Cl)c3)nc3cc(=O)[nH]n23)nc2ccccc21 | inactive: 128%
11 | CCn1c(=O)cc(OCC(=O)N2CCN(c3ccccc3OC)CC2)c2ccccc21 | inactive: 79%
12 | Cc1ccc(S(=O)(=O)n2nc(-c3ccco3)nc2NCc2ccccc2Cl)cc1 | inactive: 85%
13 | Cc1cccc(Cn2nnc(C(=O)Nc3cc(C)ccc3C)c2N)c1 | inactive: 95%
14 | Cc1cccc(C)c1NC(=O)CCCN1C(=O)CCn2nc(-c3cn(C)c4ccccc34)cc21 | inactive: 136%
15 | COc1cccc(NC(=O)C2CCN(c3nc4ccccc4nc3C(F)(F)F)CC2)c1 | inactive: 47%
16 | CC(C)NC(=O)C1CCCN(c2ncnc3c2nc2n3CCCCC2)C1 (stereo not drawn) | inactive: 73%
17 | Cc1ccc(CNC(=O)CCCn2c(=O)c3ccccc3n(Cc3ccccc3C)c2=O)cc1 | inactive: 84%
18 | CC(NC(=O)c1ccc2c(c1)N(Cc1ccc(Cl)cc1)C(=O)c1ccccc1S2=O)c1ccccc1 (stereo not drawn) | inactive: 99%
19 | CC(C)C(=O)N1C2CCC1CC(O)(c1ccccc1F)C2 (stereo not drawn) | inactive: 101%
20 | Cc1cc(C)c2sc(NC(=O)c3ccc(S(=O)(=O)N4CCOCC4)cc3)nc2c1 | inactive: 95%
21 | COc1ccc(C(=O)NCC(c2ccc(N(C)C)cc2)N2CCc3ccccc32)cc1 (stereo not drawn) | inactive: 128%
22 | Cn1c(=O)n(C)c2cc(N3CCOCC3)c(NC(=O)c3c(F)cccc3F)cc21 | inactive: 98%

Row | SMILES | survival
23 | CCCN1CCN(c2cc3c(cc2F)c(=O)c(S(=O)(=O)c2ccc(Cl)cc2)cn3C)CC1 | inactive: 70%
24 | O=C(NC1CC(=O)N(c2cccc(F)c2)C1)C(c1ccccc1)c1ccccc1 (stereo not drawn) | inactive: 71%
25 | CCc1cc2c(-c3ccccc3)cc(=O)oc2c2c1OCN(Cc1ccc(F)cc1)C2 | inactive: 81%
26 | COc1cc(OC)c(NC(=O)Nc2c(C)n(C)n(-c3ccccc3)c2=O)cc1Cl | inactive: 69%
27 | CON(C)c1nc(Cl)nc(N(C)C)n1 | inactive: 84%
28 | CCOc1ccc(CNC(=O)C2Cc3ccccc3N2C(=O)CC)cc1 (stereo not drawn) | inactive: 83%
29 | COC(=O)c1ccccc1NC(=O)c1ccc2c(=O)n3c(nc2c1)CCCCC3 | inactive: 113%
30 | CCC(Oc1ccccc1)C(=O)Nc1ccc(OCc2cc(=O)n3ccccc3n2)cc1 (stereo not drawn) | inactive: 73%
31 | O=C(CN1C=NS(=O)(=O)c2ccc(C(F)(F)F)cc21)Nc1cccc(C(F)(F)F)c1 | inactive: 76%
32 | COc1ccc(Nc2c3c(nc4ccc(NC(=O)/C=C/c5cccc(OC)c5OC)cc24)CCCC3)cc1OC | inactive: 78%
33 | CCOC(=O)c1cc(NC(=O)c2ccc(Cl)cc2)c(=O)n2c1oc1ccccc12 | inactive: 65%
34 | CC(=O)NC1C(=O)N(CCc2ccccc2)c2ccc(C)cc21 (stereo not drawn) | inactive: 65%
35 | O=C(Nc1ccc(Br)cc1)c1cccc(C(=O)Nc2ccc(Br)cc2)c1 | inactive: 80%
36 | O=S(=O)(c1ccc(Cl)cc1)c1nc(-c2ccccc2)oc1N1CCN(c2ccccc2)CC1 | inactive: 87%
37 | Cc1cccc(C=Nc2ccc3[nH]ncc3c2)c1O | inactive: 96%
38 | CCc1nc(SCc2cc(=O)c3cc(C)ccc3[nH]2)n[nH]1 | inactive: 74%
39 | CCc1cccc(NC(=O)CSc2nc3ccsc3c(=O)n2CC)c1 | inactive: 60%
40 | CCC(=O)Nc1ccc(Cl)cn1 | inactive: 112%
41 | CCOc1ccc(C2CC(=O)c3c([nH]c(C(=O)OC4CCC(C)CC4)c3C)C2)cc1 (stereo not drawn) | inactive: 78%
42 | COc1ccccc1N1CCN(C(=O)CN2C(=O)COc3ccc(S(=O)(=O)N4CCCC4)cc32)CC1 | inactive: 130%
43 | Cc1ccc(CN(Cc2cccn2-c2nnc(N3CCCC3=O)s2)C(=O)Nc2ccccc2C(F)(F)F)cc1 | inactive: 115%
44 | Cc1ccc(CNC(=O)Cn2c(=O)n(Cc3ccccc3)c(=O)c3sc4ccccc4c32)cc1 | inactive: 88%

Row | SMILES | survival
45 | CC(C)CCNC(=O)Nc1ccc2c(c1)N(Cc1ccccc1)C(=O)c1ccccc1S2 | inactive: 100%
46 | CCc1ccc(NC(=O)Cc2c(C(=O)O)c(C)cn2C)cc1 | inactive: 76%
47 | Cc1ccccc1Nc1c(-c2ccc(Br)o2)nc2ccc(Cl)cn12 | active: 10%
48 | Cc1ccc(S(=O)(=O)CC(=O)Nc2sc3c(c2C(N)=O)CCCC3)cc1 | inactive: 87%
49 | Cc1ccc(NC(=O)CCN2CCN(CCO)CC2)cc1C | inactive: 75%
50 | COc1ccc(CCNC(=O)c2ccc3c(c2)N(Cc2ccc(Cl)cc2)C(=O)c2ccccc2S3)cc1OC | inactive: 55%
51 | CCOc1ccc(-c2nn(CC(=O)NC3CCCC3)c3c2cnc2ccc(C)cc23)cc1 | inactive: 81%
52 | COc1cc(OC)c(NC(=O)c2cc(C)nc3c2c(C)nn3-c2ccc(C)cc2)cc1Cl | inactive: 101%
53 | CCN(Cc1nc(-c2ccc(OC)cc2)oc1C)S(=O)(=O)c1ccc(C)cc1 | inactive: 66%
54 | Cc1c(CCNC(=O)c2ccco2)sc2nc(-c3ccc(F)cc3)nn12 | inactive: 76%
55 | Cc1ccc(NC(=O)CN2CCSc3ccc(S(=O)(=O)N4CCCC4)cc32)cc1 | inactive: 98%
56 | CCc1ccc(Oc2c(C(F)(F)F)oc3c(CN4CCC(C)CC4)c(O)ccc3c2=O)cc1 | inactive: 86%
57 | CCCCN(CC)C(=O)c1cc2c(=O)n3cccc(C)c3nc2n1C | inactive: 82%
58 | CC(=O)c1ccc(NC(=O)Cn2c(-n3nc(C)cc3C)nc(C)c(C)c2=O)cc1 | inactive: 66%
59 | CCN(CC)c1cc2c(cc1F)c(=O)c(S(=O)(=O)c1ccc(OC)cc1)cn2Cc1ccccc1 | inactive: 127%
60 | CCOc1ccccc1Nc1nnc(-c2cc3cc(OC)ccc3oc2=O)s1 | inactive: 73%
61 | CCOC(=O)Cc1ccc(NC(=O)N2CCC(CN3CCCCCC3)CC2)cc1 | inactive: 59%
62 | COc1ccc(C(=O)N2CCC(C(=O)Nc3ccc(Cl)cc3)CC2)cc1 | inactive: 122%
63 | COc1cccc(CSc2nc3n(n2)C(CC(C)C)C(C(=O)Nc2ccccc2OC)=C(C)N3)c1 (stereo not drawn) | inactive: 83%
64 | CCCCN(CC)CCCNC(=O)Cn1ncc2c3ccccc3n(C)c2c1=O | inactive: 123%
65 | CCOc1ccc(S(=O)(=O)N(CC(=O)NCc2ccccc2OC)c2ccccc2)cc1 | inactive: 58%
66 | Cc1cc(=O)n2nc(N(C)CC(=O)NCc3cccc(Br)c3)sc2n1 | inactive: 88%

Row | SMILES | survival
67 | CCOc1ccc(OCC)c(NC(=O)Cn2nc(CC)n3c(cc4sccc43)c2=O)c1 | inactive: 89%
68 | CC(C)/C(N)=N/OC(=O)c1ccc(I)cc1 | inactive: 104%
69 | CCc1cccc(NC(=O)Cn2c(=O)n(CC(=O)NCCc3ccccc3)c(=O)c3ccccc32)c1 | inactive: 135%
70 | CC(C)CCn1c(=O)c2sccc2n2c(CCCC(=O)NCCc3ccccc3)nnc12 | inactive: 83%
71 | O=C(NCCc1ccc(Cl)cc1)c1ccc(CS(=O)Cc2ccccc2Cl)o1 (stereo not drawn) | inactive: 62%
72 | COc1cccc(CNC(=O)c2oc3c(c2C)-c2nn(Cc4cccc(Cl)c4)cc2CC3)c1OC | inactive: 73%
73 | COc1ccccc1C(=O)N1CCC(c2noc(-c3ccc(S(=O)(=O)N4CCCC4)cc3)n2)CC1 | inactive: 92%
74 | CC(C)N(C)C1CCN(S(=O)(=O)c2ccc3[nH]c(=O)ccc3c2)CC1 | inactive: 47%
75 | COc1ccc(NC(=O)Cn2c(SCc3ccc(F)cc3)nc3cccnc32)cc1OC | inactive: 81%
76 | Cc1cccc(NC(=O)C2CCN(c3nc4ccccc4[nH]3)CC2)c1C | inactive: 71%
77 | COCC(=O)N1CCC(c2nc3ccccc3[nH]2)CC1 | inactive: 121%
78 | Cc1cc(C)cc(N2C(=O)CSC23C(=O)N(CC(=O)Nc2ccc(F)cc2F)c2ccccc23)c1 (stereo not drawn) | inactive: 78%
79 | O=C(Nc1ccc2nc(SCC(=O)N3CCCC3)sc2c1)c1cccc(Br)c1 | inactive: 62%
80 | CCOC(=O)c1cnc2c(C(F)(F)F)cccc2c1Cl | inactive: 136%
81 | Cc1ccc(C)c(CNC(=O)CCn2cccn2)c1 | inactive: 128%
82 | CCN(CC)C(=O)c1csc(Nc2ccc(C)cc2)n1 | inactive: 111%
83 | CCOC(=O)c1oc2c(c1C)-c1nn(Cc3c(F)cccc3Cl)cc1CC2 | inactive: 64%
84 | CCOCCCN1C(=O)c2[nH]nc(-c3ccccc3O)c2C1c1ccc(CC)cc1 (stereo not drawn) | inactive: 63%
85 | CCCCc1nn2c(=O)cc(COC(=O)c3ccc(NC(=O)CCc4ccccc4)cc3)nc2s1 | inactive: 89%
86 | Cc1ccc(NC(=O)C2CC(=O)n3cnnc3N2)cc1Cl (stereo not drawn) | inactive: 105%
87 | CCCc1ccc(-c2ccc(C(=O)Oc3ccc(OCC)cc3)cc2)nc1 | inactive: 67%
88 | CCCCN(C)S(=O)(=O)c1ccc(C(=O)Nc2sc3c(c2C(N)=O)CC(C)(C)NC3(C)C)cc1 | inactive: 68%
